{"source": "the supplement of paper PMC8728848", "binders": {"B1": {"name": "FimA-N3 (Actinomyces oris) (protein)", "chain": "MHHHHHHSSGVDLGTENLYFQSNAGLQGAQFQLYKAKNAYANTCSNEKEGAPIAINGQTTLTTDAQGAIDIKGLFISDSIDGADRDNQVNAMERCYVLVETKAPAGYVLPAGNGAATPVKVKAGEETTDN"}}, "experiment_in_all_cases": "glycan array binding signal (z-score within array); higher = stronger binding", "conditions_in_all_cases": "glycan notation: IUPAC condensed, linker removed", "key": {"[1]": {"target": "Man(a1-2)Man(a1-3)[Man(a1-2)Man(a1-6)]Man(a1-6)[Man(a1-2)Man(a1-2)Man(a1-3)]Man", "in_short": "(§1)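 From the Consortium for Functional Glycomics database, 3228 arrays were curated, keeping only those whose protein sequence was available. Binding is given as a within-array Z-score averaged across arrays sharing a protein sequence and across linkers. Negative Z-scores can be read as non-binding.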"}, "[2]": {"target": "Man(a1-2)Man(a1-3)[Man(a1-2)Man(a1-6)]Man(a1-6)[Man(a1-2)Man(a1-2)Man(a1-3)]Man(b1-4)GlcNAc(b1-4)GlcNAc", "in_short": "as §1"}, "[3]": {"target": "Man(a1-2)Man(a1-3)[Man(a1-6)]Man(a1-6)[Man(a1-2)Man(a1-3)]Man(b1-4)GlcNAc(b1-4)GlcNAc", "in_short": "as §1"}, "[4]": {"target": "Man(a1-2)Man(a1-6)[Man(a1-3)]Man(a1-6)[Man(a1-2)Man(a1-2)Man(a1-3)]Man", "in_short": "as §1"}, "[5]": {"target": "Man(a1-2)Man(a1-6)[Man(a1-3)]Man(a1-6)[Man(a1-2)Man(a1-2)Man(a1-3)]Man(b1-4)GlcNAc(b1-4)GlcNAc", "in_short": "as §1"}, "Man(a1-3)[Man(a1-6)]Man": {"target": "Man(a1-3)[Man(a1-6)]Man", "in_short": "as §1"}, "[6]": {"target": "Man(a1-3)[Man(a1-6)]Man(a1-6)[Man(a1-2)Man(a1-3)]Man(b1-4)GlcNAc(b1-4)GlcNAc", "in_short": "as §1"}, "[7]": {"target": "Man(a1-3)[Man(a1-6)]Man(a1-6)[Man(a1-3)]Man", "in_short": "as §1"}, "[8]": {"target": "Man(a1-3)[Man(a1-6)]Man(a1-6)[Man(a1-3)]Man(b1-4)GlcNAc(b1-4)GlcNAc", "in_short": "as §1"}, "[9]": {"target": "Man(a1-3)[Man(a1-6)]Man(b1-4)GlcNAc(b1-4)GlcNAc", "in_short": "as §1"}, "[10]": {"target": "Man(a1-3)[Man(a1-6)]Man(b1-4)GlcNAc(b1-4)[Fuc(a1-6)]GlcNAc", "in_short": "as §1"}, "Man(a1-6)Man": {"target": "Man(a1-6)Man", "in_short": "as §1"}, "Man(b1-4)GlcNAc": {"target": "Man(b1-4)GlcNAc", "in_short": "as §1"}, "MurNAc(b1-4)GlcNAc": {"target": "MurNAc(b1-4)GlcNAc", "in_short": "as §1"}, "Neu5Ac(a2-3)Gal": {"target": "Neu5Ac(a2-3)Gal", "in_short": "as §1"}, "[11]": {"target": "Neu5Ac(a2-3)Gal(b1-3)GalNAc", "in_short": "as §1"}, "[12]": {"target": "Neu5Ac(a2-3)Gal(b1-3)GalNAc(b1-3)Gal(a1-4)Gal(b1-4)Glc", "in_short": "as §1"}, "[13]": {"target": "Neu5Ac(a2-3)Gal(b1-3)GalNAc(b1-4)[Neu5Ac(a2-3)]Gal(b1-4)Glc", "in_short": "as §1"}, "[14]": {"target": "Neu5Ac(a2-3)Gal(b1-3)GalNAc(b1-4)[Neu5Ac(a2-8)Neu5Ac(a2-3)]Gal(b1-4)Glc", "in_short": "as §1"}, "[15]": {"target": "Neu5Ac(a2-3)Gal(b1-3)GalNAc6S", "in_short": "as §1"}, "[16]": {"target": "Neu5Ac(a2-3)Gal(b1-3)GlcNAc", "in_short": "as §1"}, "[17]": {"target": "Neu5Ac(a2-3)Gal(b1-3)GlcNAc(b1-2)Man", "in_short": "as §1"}, "[18]": {"target": "Neu5Ac(a2-3)Gal(b1-3)GlcNAc(b1-2)Man(a1-3)[GlcNAc(b1-4)][Neu5Ac(a2-3)Gal(b1-3)GlcNAc(b1-2)Man(a1-6)]Man(b1-4)GlcNAc(b1-4)GlcNAc", "in_short": "as §1"}, "[19]": {"target": "Neu5Ac(a2-3)Gal(b1-3)GlcNAc(b1-2)Man(a1-3)[Neu5Ac(a2-3)Gal(b1-3)GlcNAc(b1-2)Man(a1-6)]Man(b1-4)GlcNAc(b1-4)GlcNAc", "in_short": "as §1"}, "[20]": {"target": "Neu5Ac(a2-3)Gal(b1-3)GlcNAc(b1-3)Gal(b1-3)GlcNAc", "in_short": "as §1"}, "[21]": {"target": "Neu5Ac(a2-3)Gal(b1-3)GlcNAc(b1-3)Gal(b1-4)GlcNAc", "in_short": "as §1"}, "[22]": {"target": "Neu5Ac(a2-3)Gal(b1-3)GlcNAc(b1-3)GalNAc", "in_short": "as §1"}, "[23]": {"target": "Neu5Ac(a2-3)Gal(b1-3)GlcNAc(b1-4)Gal(b1-4)Glc", "in_short": "as §1"}, "[24]": {"target": "Neu5Ac(a2-3)Gal(b1-3)GlcNAc(b1-6)GalNAc", "in_short": "as §1"}, "[25]": {"target": "Neu5Ac(a2-3)Gal(b1-3)GlcNAc6S", "in_short": "as §1"}, "[26]": {"target": "Neu5Ac(a2-3)Gal(b1-3)[Fuc(a1-4)]GlcNAc", "in_short": "as §1"}, "[27]": {"target": "Neu5Ac(a2-3)Gal(b1-3)[Fuc(a1-4)]GlcNAc(b1-3)Gal(b1-3)[Fuc(a1-4)]GlcNAc", "in_short": "as §1"}, "[28]": {"target": "Neu5Ac(a2-3)Gal(b1-3)[Fuc(a1-4)]GlcNAc(b1-3)Gal(b1-4)[Fuc(a1-3)]GlcNAc", "in_short": "as §1"}, "[29]": {"target": "Neu5Ac(a2-3)Gal(b1-3)[GlcNAc(b1-6)]GalNAc", "in_short": "as §1"}, "[30]": {"target": "Neu5Ac(a2-3)Gal(b1-3)[Neu5Ac(a2-6)]GalNAc", "in_short": "as §1"}, "[31]": {"target": "Neu5Ac(a2-3)Gal(b1-3)[Neu5Ac(a2-6)]GlcNAc(b1-3)[Fuc(a1-3)[Gal(b1-4)]GlcNAc(b1-6)]Gal(b1-4)Glc", "in_short": "as §1"}, "[32]": {"target": "Neu5Ac(a2-3)Gal(b1-3)]Neu5Ac(a2-3)Gal(b1-4)]GlcNAc", "in_short": "as §1"}, "Neu5Ac(a2-3)Gal(b1-4)Glc": {"target": "Neu5Ac(a2-3)Gal(b1-4)Glc", "in_short": "as §1"}, "[33]": {"target": "Neu5Ac(a2-3)Gal(b1-4)GlcNAc", "in_short": "as §1"}, "[34]": {"target": "Neu5Ac(a2-3)Gal(b1-4)GlcNAc(b1-2)Man", "in_short": "as §1"}, "[35]": {"target": "Neu5Ac(a2-3)Gal(b1-4)GlcNAc(b1-2)Man(a1-3)[GlcNAc(b1-4)][Neu5Ac(a2-3)Gal(b1-4)GlcNAc(b1-2)Man(a1-6)]Man(b1-4)GlcNAc(b1-4)GlcNAc", "in_short": "as §1"}, "[36]": {"target": "Neu5Ac(a2-3)Gal(b1-4)GlcNAc(b1-2)Man(a1-3)[Neu5Ac(a2-3)Gal(b1-4)GlcNAc(b1-2)Man(a1-6)]Man(b1-4)GlcNAc(b1-4)GlcNAc", "in_short": "as §1"}, "[37]": {"target": "Neu5Ac(a2-3)Gal(b1-4)GlcNAc(b1-2)Man(a1-3)[Neu5Ac(a2-3)Gal(b1-4)GlcNAc(b1-2)Man(a1-6)]Man(b1-4)GlcNAc(b1-4)[Fuc(a1-6)]GlcNAc", "in_short": "as §1"}, "[38]": {"target": "Neu5Ac(a2-3)Gal(b1-4)GlcNAc(b1-2)Man(a1-3)[Neu5Ac(a2-6)Gal(b1-4)GlcNAc(b1-2)Man(a1-6)]Man(b1-4)GlcNAc(b1-4)GlcNAc", "in_short": "as §1"}, "[39]": {"target": "Neu5Ac(a2-3)Gal(b1-4)GlcNAc(b1-2)[Neu5Ac(a2-3)Gal(b1-4)GlcNAc(b1-4)]Man(a1-3)[GlcNAc(b1-4)][Neu5Ac(a2-3)Gal(b1-4)GlcNAc(b1-2)[Neu5Ac(a2-3)Gal(b1-4)GlcNAc(b1-6)]Man(a1-6)]Man(b1-4)GlcNAc(b1-4)GlcNAc", "in_short": "as §1"}}, "note": "This is one part of the list.", "data": [{"binder": "B1", "values": [{"measurement": "glycan array binding signal (z-score)", "setting": "[1]", "value": -0.469}, {"measurement": "glycan array binding signal (z-score)", "setting": "[2]", "value": 0.019}, {"measurement": "glycan array binding signal (z-score)", "setting": "[3]", "value": -0.663}, {"measurement": "glycan array binding signal (z-score)", "setting": "[4]", "value": -0.315}, {"measurement": "glycan array binding signal (z-score)", "setting": "[5]", "value": 0.133}, {"measurement": "glycan array binding signal (z-score)", "setting": "Man(a1-3)[Man(a1-6)]Man", "value": -0.131}, {"measurement": "glycan array binding signal (z-score)", "setting": "[6]", "value": 0.179}, {"measurement": "glycan array binding signal (z-score)", "setting": "[7]", "value": -0.288}, {"measurement": "glycan array binding signal (z-score)", "setting": "[8]", "value": -0.253}, {"measurement": "glycan array binding signal (z-score)", "setting": "[9]", "value": -0.463}, {"measurement": "glycan array binding signal (z-score)", "setting": "[10]", "value": -0.616}, {"measurement": "glycan array binding signal (z-score)", "setting": "Man(a1-6)Man", "value": 3.05}, {"measurement": "glycan array binding signal (z-score)", "setting": "Man(b1-4)GlcNAc", "value": -0.361}, {"measurement": "glycan array binding signal (z-score)", "setting": "MurNAc(b1-4)GlcNAc", "value": 0.17}, {"measurement": "glycan array binding signal (z-score)", "setting": "Neu5Ac(a2-3)Gal", "value": 0.307}, {"measurement": "glycan array binding signal (z-score)", "setting": "[11]", "value": -0.209}, {"measurement": "glycan array binding signal (z-score)", "setting": "[12]", "value": -0.314}, {"measurement": "glycan array binding signal (z-score)", "setting": "[13]", "value": -0.346}, {"measurement": "glycan array binding signal (z-score)", "setting": "[14]", "value": -0.304}, {"measurement": "glycan array binding signal (z-score)", "setting": "[15]", "value": -0.036}, {"measurement": "glycan array binding signal (z-score)", "setting": "[16]", "value": -0.431}, {"measurement": "glycan array binding signal (z-score)", "setting": "[17]", "value": 0.059}, {"measurement": "glycan array binding signal (z-score)", "setting": "[18]", "value": -0.419}, {"measurement": "glycan array binding signal (z-score)", "setting": "[19]", "value": -0.484}, {"measurement": "glycan array binding signal (z-score)", "setting": "[20]", "value": -0.131}, {"measurement": "glycan array binding signal (z-score)", "setting": "[21]", "value": 1.01}, {"measurement": "glycan array binding signal (z-score)", "setting": "[22]", "value": -0.423}, {"measurement": "glycan array binding signal (z-score)", "setting": "[23]", "value": -0.649}, {"measurement": "glycan array binding signal (z-score)", "setting": "[24]", "value": 0.038}, {"measurement": "glycan array binding signal (z-score)", "setting": "[25]", "value": -0.291}, {"measurement": "glycan array binding signal (z-score)", "setting": "[26]", "value": 15.7}, {"measurement": "glycan array binding signal (z-score)", "setting": "[27]", "value": 0.573}, {"measurement": "glycan array binding signal (z-score)", "setting": "[28]", "value": 0.004}, {"measurement": "glycan array binding signal (z-score)", "setting": "[29]", "value": 0.093}, {"measurement": "glycan array binding signal (z-score)", "setting": "[30]", "value": -0.145}, {"measurement": "glycan array binding signal (z-score)", "setting": "[31]", "value": 0.006}, {"measurement": "glycan array binding signal (z-score)", "setting": "[32]", "value": -0.167}, {"measurement": "glycan array binding signal (z-score)", "setting": "Neu5Ac(a2-3)Gal(b1-4)Glc", "value": 0.051}, {"measurement": "glycan array binding signal (z-score)", "setting": "[33]", "value": -0.259}, {"measurement": "glycan array binding signal (z-score)", "setting": "[34]", "value": 0.309}, {"measurement": "glycan array binding signal (z-score)", "setting": "[35]", "value": -0.138}, {"measurement": "glycan array binding signal (z-score)", "setting": "[36]", "value": -0.045}, {"measurement": "glycan array binding signal (z-score)", "setting": "[37]", "value": -0.17}, {"measurement": "glycan array binding signal (z-score)", "setting": "[38]", "value": -0.357}, {"measurement": "glycan array binding signal (z-score)", "setting": "[39]", "value": -0.254}]}]}
